In a collection of fitness landscapes (doi:10.1016/j.celrep.2020.107928):
Whole data set: some 81,000 sequences, median “one-hybrid fitness for binding NBS DNA” near -0.1, cut for the highest 2% near 0.36. Some of the results follow.

B1: Caulobacter ParB omega fusion; a variant is named by its letters at X, in order, B8GW30 (parent)
chain: MESVVVGEPGMSEGRRGLGRGLSALLGEVDAAPAQAPGEQLGGSREAPIEILQRNPDQPRRTFREEDLEDLSNSIREKGVLQPILVRPSPDTAGEYQIVAGERAWRAAQRAGLKTVPIMVRELDDLAVLEIGIIENVQRADLNVLEEALSYKVLMEKFERTQENIAQTIGKSXSHVANXMRLLXLPDEVQSYLVSGELTAXHARAIAAAADPVALAKQIIEGGLSVRETEALARKAPNLSAGKSKGGRPPRVKDTDTQALESDLSSVLGLDVSIDHRGSTGTLTITYATLEQLDDLCNRLTRGI

Variants of: B1
Assay: one-hybrid fitness for binding NBS DNA (the Noc-binding site; scaled: cognate 1, non-cognate 0); higher = stronger binding
Settings: with NBS DNA site
Procedure, shortened: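 Caulobacter ParB libraries with four specificity codons randomised were screened by bacterial one-hybrid selection in the E. coli USO strain, using a HIS3 reporter whose site lies 19 bp from the promoter. Selection ran for 48 hours at 37°C on M9 lacking histidine, with 0.1 mM IPTG and 5 mM 3-AT. Plasmids were Illumina-sequenced before and after selection, three replicate libraries were pooled, and variants with under 10 reads were dropped. Fitness is the log change in each variant's read ratio to wild type, rescaled against the cognate and non-cognate sites.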

Variant | one-hybrid fitness for binding NBS DNA
GVNF | ≤ 0.2
YVVC | ≤ 0.2
GQRD | ≤ 0.2
DRFK | ≤ 0.2
WHIG | ≤ 0.2
CPKA | ≤ 0.2
PFSD | ≤ 0.2
LSPQ | ≤ 0.2
ELYT | ≤ 0.2
ERVS | ≤ 0.2
SPYA | ≤ 0.2
RMGD | ≤ 0.2
KYSL | ≤ 0.2
TAAQ | ≤ 0.2
PINM | ≤ 0.2
FTMS | ≤ 0.2
RPRR | ≤ 0.2
PWKN | ≤ 0.2
QVII | ≤ 0.2
YIER | ≤ 0.2
FCDL | ≤ 0.2
HNYT | ≤ 0.2
QDER | ≤ 0.2
QLIW | ≤ 0.2

Variant | one-hybrid fitness for binding NBS DNA
APPI | ≤ 0.2
SDDY | ≤ 0.2
QTLG | ≤ 0.2
NGRS | ≤ 0.2
TTVG | ≤ 0.2
MSHP | ≤ 0.2
MSTT | ≤ 0.2
NSPV | ≤ 0.2
DMLR | ≤ 0.2
GKLR | ≤ 0.2
STPF | ≤ 0.2
VRQA | ≤ 0.2
AMPE | ≤ 0.2
MVHT | ≤ 0.2
NVVY | ≤ 0.2
HVDI | ≤ 0.2
YKSK | ≤ 0.2
ITVY | ≤ 0.2
QQSQ | ≤ 0.2
DVVM | ≤ 0.2
PAWF | ≤ 0.2
RGCK | ≤ 0.2
ASVT | ≤ 0.2
TIEW | ≤ 0.2

Variant | one-hybrid fitness for binding NBS DNA
QKAL | ≤ 0.2
HYCW | ≤ 0.2
IQAN | ≤ 0.2
ASNH | ≤ 0.2
RFHT | 0.263
YDRK | ≤ 0.2
QRCD | 0.237
WQVG | ≤ 0.2
NTHM | ≤ 0.2
TNWS | ≤ 0.2
AYHW | ≤ 0.2
TLKF | ≤ 0.2
PFRS | ≤ 0.2
MQCG | ≤ 0.2
RQLW | ≤ 0.2
GLPV | ≤ 0.2
TCSD | ≤ 0.2
IMHS | ≤ 0.2
TEFR | ≤ 0.2
EWLS | ≤ 0.2
EGPM | ≤ 0.2
LKQD | ≤ 0.2
CYDY | ≤ 0.2
ETPS | ≤ 0.2

Variant | one-hybrid fitness for binding NBS DNA
LQFS | ≤ 0.2
GTNV | ≤ 0.2
CGCS | ≤ 0.2
KPAI | ≤ 0.2
YDTV | ≤ 0.2
NPTF | ≤ 0.2
QQSF | ≤ 0.2
PNTA | ≤ 0.2
IRVY | ≤ 0.2
TSFS | ≤ 0.2
VNTK | ≤ 0.2
YAAA | ≤ 0.2
IGRY | ≤ 0.2
RRWS | 0.628
VYNV | ≤ 0.2
SQRH | ≤ 0.2
KSLC | ≤ 0.2
RENF | ≤ 0.2
IIAM | ≤ 0.2
RKLD | ≤ 0.2
VKGC | ≤ 0.2
PMLV | ≤ 0.2
RLSL | ≤ 0.2
VYHP | ≤ 0.2

Variant | one-hybrid fitness for binding NBS DNA
HPSA | ≤ 0.2
TQTN | ≤ 0.2
VRWS | ≤ 0.2
WTFR | ≤ 0.2
ERIR | ≤ 0.2
APRR | ≤ 0.2
KQTH | ≤ 0.2
AQTR | ≤ 0.2
FSCC | ≤ 0.2
VTGI | ≤ 0.2
DCLC | ≤ 0.2
DYPV | ≤ 0.2
RYNT | 0.514
VYKT | ≤ 0.2
RDMT | ≤ 0.2
RSLK | ≤ 0.2
VRKK | ≤ 0.2
MKPK | ≤ 0.2
RIKY | 0.246
SAAL | ≤ 0.2
AQCP | ≤ 0.2
YRCG | ≤ 0.2
APYG | ≤ 0.2
RHRW | ≤ 0.2

Variant | one-hybrid fitness for binding NBS DNA
LPAN | ≤ 0.2
TKWV | ≤ 0.2
HRDV | ≤ 0.2
QFPV | ≤ 0.2
WTSM | ≤ 0.2
VSVI | ≤ 0.2
CNRA | ≤ 0.2
IRST | 0.268
VSHI | ≤ 0.2
PEFR | ≤ 0.2
QWYV | ≤ 0.2
CFVC | ≤ 0.2
HWRF | ≤ 0.2
YLPL | ≤ 0.2
EALS | ≤ 0.2
LSTG | ≤ 0.2
ILTK | ≤ 0.2
ADMR | ≤ 0.2
MCRN | ≤ 0.2
AINS | ≤ 0.2
CGRK | ≤ 0.2
HDTC | ≤ 0.2
DRLT | ≤ 0.2
RKAP | ≤ 0.2

Variant | one-hybrid fitness for binding NBS DNA
KEQC | ≤ 0.2
GYWR | ≤ 0.2
AVES | ≤ 0.2
ATNW | ≤ 0.2
NNNI | ≤ 0.2
NLLS | ≤ 0.2
ENHY | ≤ 0.2
LVCG | ≤ 0.2
YKPG | ≤ 0.2
SYIW | ≤ 0.2
QQER | 0.426
TVYY | ≤ 0.2
KVFL | ≤ 0.2
LLYN | ≤ 0.2
WDHW | ≤ 0.2
AQIS | ≤ 0.2
LVKS | ≤ 0.2
VFPV | ≤ 0.2
RNKI | ≤ 0.2
NMDR | ≤ 0.2
LRSC | ≤ 0.2
GPTV | ≤ 0.2
HFRL | ≤ 0.2
SVVI | ≤ 0.2

Variant | one-hybrid fitness for binding NBS DNA
NPTR | ≤ 0.2
YKQG | ≤ 0.2
EMRM | ≤ 0.2
TVNF | ≤ 0.2
ANSE | ≤ 0.2
IHVK | ≤ 0.2
KASG | ≤ 0.2
CKDC | ≤ 0.2
RWLL | ≤ 0.2
APCT | ≤ 0.2
FLHS | ≤ 0.2
TKHD | ≤ 0.2
PLLN | ≤ 0.2
TAKL | ≤ 0.2
TCEM | ≤ 0.2
RPNV | ≤ 0.2
NANC | ≤ 0.2
CHIT | ≤ 0.2
SDKF | ≤ 0.2
YSNV | ≤ 0.2
VADD | ≤ 0.2
HMAR | ≤ 0.2
LIDS | ≤ 0.2
RWGY | ≤ 0.2

Variant | one-hybrid fitness for binding NBS DNA
YYYV | ≤ 0.2
EHTC | ≤ 0.2
SYFF | ≤ 0.2
QMDM | ≤ 0.2
RVNL | ≤ 0.2
YDTF | ≤ 0.2
WPGR | ≤ 0.2
KNPM | ≤ 0.2
SAKW | ≤ 0.2
QTTH | 0.385
RVFN | ≤ 0.2
EFTA | ≤ 0.2
MPMV | ≤ 0.2
QEPH | ≤ 0.2
SSLV | ≤ 0.2
HYVI | ≤ 0.2
MRRC | ≤ 0.2
QIKV | 0.267
SNIC | ≤ 0.2
PDQC | ≤ 0.2
MLGS | ≤ 0.2
SGYG | ≤ 0.2
ALAI | ≤ 0.2
NTKA | ≤ 0.2

Variant | one-hybrid fitness for binding NBS DNA
VVCR | ≤ 0.2
HDNS | ≤ 0.2
PYMM | ≤ 0.2
SSNE | ≤ 0.2
PPFP | ≤ 0.2
MKYC | ≤ 0.2
GPAK | ≤ 0.2
VPSR | ≤ 0.2
GIPS | ≤ 0.2
SGKE | ≤ 0.2
NPIY | ≤ 0.2
WSHS | ≤ 0.2
TSTG | ≤ 0.2
DSMC | ≤ 0.2
RCFN | ≤ 0.2
VYTS | ≤ 0.2
SNTV | ≤ 0.2
PRVE | ≤ 0.2
TNVY | ≤ 0.2
MRTT | ≤ 0.2
SWKK | ≤ 0.2
STCE | ≤ 0.2
AKVE | ≤ 0.2
QRYS | 0.646

Variant | one-hybrid fitness for binding NBS DNA
DHFS | ≤ 0.2
ASNR | ≤ 0.2
YILT | ≤ 0.2
DSSR | ≤ 0.2
AYTD | ≤ 0.2
GTKG | ≤ 0.2
MAWR | ≤ 0.2
RPFM | ≤ 0.2
ILMW | ≤ 0.2
NGNH | ≤ 0.2
RVRL | ≤ 0.2
AQEW | ≤ 0.2
PLLK | ≤ 0.2
SRKF | ≤ 0.2
REHM | ≤ 0.2
ASVG | ≤ 0.2
PLMC | ≤ 0.2
DMSL | ≤ 0.2
ANSI | ≤ 0.2
ARNL | ≤ 0.2
KAFV | ≤ 0.2
NPIV | ≤ 0.2
HAFR | ≤ 0.2
VIMI | ≤ 0.2

Variant | one-hybrid fitness for binding NBS DNA
QVGT | 0.338
QHWY | ≤ 0.2
MPQH | ≤ 0.2
EDTG | ≤ 0.2
TTEP | ≤ 0.2
RWHW | ≤ 0.2
AHAR | ≤ 0.2
NGHK | ≤ 0.2
WVMS | ≤ 0.2
ARIG | ≤ 0.2
APET | ≤ 0.2
KRHR | 0.616
PIWY | ≤ 0.2
IIPI | ≤ 0.2
LITH | ≤ 0.2
WAPH | ≤ 0.2
LIYP | ≤ 0.2
HTPF | ≤ 0.2
KWSV | ≤ 0.2
HNIS | ≤ 0.2
WVYG | ≤ 0.2
SSDA | ≤ 0.2
RCIY | ≤ 0.2
FLGA | ≤ 0.2

Variant | one-hybrid fitness for binding NBS DNA
SCSR | ≤ 0.2
MYMW | ≤ 0.2
HFNA | ≤ 0.2
DLIR | ≤ 0.2
KNQR | ≤ 0.2
HQKI | ≤ 0.2
NRTT | ≤ 0.2
LSDC | ≤ 0.2
SRRR | 0.281
NCES | ≤ 0.2
HDWS | ≤ 0.2
YWPR | ≤ 0.2
PRGS | ≤ 0.2
HHLE | ≤ 0.2
LRMY | ≤ 0.2
SVDW | ≤ 0.2
QTGS | 0.557
CNTH | ≤ 0.2
